{
  "source": "the supplement of paper PMC8728848",
  "binders": {"B1": {"name": "Epa3 (Candida glabrata), Q6VBI8_CANGB (protein)", "chain": "MGSSHHHHHHSSGLVPRGSHMNDLGFSLFEKRELSSQNPFGYPIGCSPQDVAIIPGLTMELYSYPIVSGTPPNCYDASYVDPEYPRTGYLKRKMVGKSTGVTGNLNYKYSVEKACMVKYGNLPAGYNYNEPLTVSNFTMILYGYFKAQTTGLHTFFVNADDLLYINFGAGNAFDCCKREDSKTKLGEYVAYDIWHVDSSKNKVSLFLEKDLYYPIRMFFNNIGKDSSLDLSFSVNGATDQISDFSGYLYSVPDQPDTCPAHIGYDTTCR"}},
  "assay_in_all_cases": "glycan array binding signal (z-score within array); higher = stronger binding",
  "conditions_in_all_cases": "glycan notation: IUPAC condensed, linker removed",
  "key": {"[1]": {"target": "Fuc(a1-3)[Gal(b1-4)]GlcNAc(b1-3)Gal(b1-3)[Fuc(a1-4)]GlcNAc", "in_short": "(§1)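 Glycan array data came from 3228 arrays in the Consortium for Functional Glycomics database, and only arrays with an available protein sequence were kept. Glycan names were put into IUPAC-condensed notation, and columns mapping to the same glycan were averaged. The binding signal is a within-array Z-score, averaged across arrays of one protein sequence run at different concentrations or buffers and across linkers. A negative Z-score can be read as non-binding.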"}, "[2]": {"target": "Fuc(a1-3)[Gal(b1-4)]GlcNAc(b1-3)Gal(b1-4)[Fuc(a1-3)]GlcNAc", "in_short": "as §1"}, "[3]": {"target": "Fuc(a1-3)[Gal(b1-4)]GlcNAc(b1-3)Gal(b1-4)[Fuc(a1-3)]GlcNAc(b1-3)Gal(b1-4)[Fuc(a1-3)]GlcNAc", "in_short": "as §1"}, "[4]": {"target": "Fuc(a1-3)[Gal(b1-4)]GlcNAc(b1-3)GalNAc", "in_short": "as §1"}, "[5]": {"target": "Fuc(a1-3)[Gal(b1-4)]GlcNAc(b1-6)GalNAc", "in_short": "as §1"}, "[6]": {"target": "Fuc(a1-3)[Gal(b1-4)]GlcNAc(b1-6)[Gal(b1-3)GlcNAc(b1-3)]Gal(b1-4)Glc", "in_short": "as §1"}, "[7]": {"target": "Fuc(a1-3)[Gal(b1-4)]GlcNAc6S", "in_short": "as §1"}, "[8]": {"target": "Fuc(a1-3)[Gal3S(b1-4)]Glc", "in_short": "as §1"}, "[9]": {"target": "Fuc(a1-3)[Gal3S(b1-4)]GlcNAc", "in_short": "as §1"}, "[10]": {"target": "Fuc(a1-3)[Gal3S(b1-4)]GlcNAc6S", "in_short": "as §1"}, "[11]": {"target": "Fuc(a1-3)[GalNAc(b1-4)]GlcNAc", "in_short": "as §1"}, "[12]": {"target": "Fuc(a1-3)[GalNAc(b1-4)]GlcNAc6S", "in_short": "as §1"}, "Fuc(a1-4)GlcNAc": {"target": "Fuc(a1-4)GlcNAc", "in_short": "as §1"}, "Fuc(b1-3)GlcNAc": {"target": "Fuc(b1-3)GlcNAc", "in_short": "as §1"}, "Gal(a1-2)Gal": {"target": "Gal(a1-2)Gal", "in_short": "as §1"}, "Gal(a1-3)Gal": {"target": "Gal(a1-3)Gal", "in_short": "as §1"}, "Gal(a1-3)Gal(b1-3)GlcNAc": {"target": "Gal(a1-3)Gal(b1-3)GlcNAc", "in_short": "as §1"}, "[13]": {"target": "Gal(a1-3)Gal(b1-3)GlcNAc(b1-2)Man", "in_short": "as §1"}, "[14]": {"target": "Gal(a1-3)Gal(b1-3)GlcNAc(b1-2)Man(a1-3)[Gal(a1-3)Gal(b1-3)GlcNAc(b1-2)Man(a1-6)]Man(b1-4)GlcNAc(b1-4)GlcNAc", "in_short": "as §1"}, "[15]": {"target": "Gal(a1-3)Gal(b1-3)GlcNAc(b1-3)GalNAc", "in_short": "as §1"}, "[16]": {"target": "Gal(a1-3)Gal(b1-3)GlcNAc(b1-6)GalNAc", "in_short": "as §1"}, "[17]": {"target": "Gal(a1-3)Gal(b1-3)[Fuc(a1-4)]GlcNAc(b1-2)Man(a1-3)[Gal(a1-3)Gal(b1-3)[Fuc(a1-4)]GlcNAc(b1-2)Man(a1-6)]Man(b1-4)GlcNAc(b1-4)GlcNAc", "in_short": "as §1"}, "Gal(a1-3)Gal(b1-4)Glc": {"target": "Gal(a1-3)Gal(b1-4)Glc", "in_short": "as §1"}, "Gal(a1-3)Gal(b1-4)GlcNAc": {"target": "Gal(a1-3)Gal(b1-4)GlcNAc", "in_short": "as §1"}, "[18]": {"target": "Gal(a1-3)Gal(b1-4)GlcNAc(b1-2)Man", "in_short": "as §1"}, "[19]": {"target": "Gal(a1-3)Gal(b1-4)GlcNAc(b1-2)Man(a1-3)[Gal(a1-3)Gal(b1-4)GlcNAc(b1-2)Man(a1-6)]Man(b1-4)GlcNAc(b1-4)GlcNAc", "in_short": "as §1"}, "[20]": {"target": "Gal(a1-3)Gal(b1-4)GlcNAc(b1-3)GalNAc", "in_short": "as §1"}, "[21]": {"target": "Gal(a1-3)Gal(b1-4)GlcNAc(b1-6)GalNAc", "in_short": "as §1"}, "[22]": {"target": "Gal(a1-3)Gal(b1-4)[Fuc(a1-3)]GlcNAc", "in_short": "as §1"}, "[23]": {"target": "Gal(a1-3)Gal(b1-4)[Fuc(a1-3)]GlcNAc(b1-2)Man(a1-3)[Gal(a1-3)Gal(b1-4)[Fuc(a1-3)]GlcNAc(b1-2)Man(a1-6)]Man(b1-4)GlcNAc(b1-4)GlcNAc", "in_short": "as §1"}, "Gal(a1-3)GalNAc": {"target": "Gal(a1-3)GalNAc", "in_short": "as §1"}, "[24]": {"target": "Gal(a1-3)[Gal(a1-4)]Gal(b1-4)GlcNAc", "in_short": "as §1"}, "[25]": {"target": "Gal(a1-4)Gal(b1-3)GlcNAc(b1-2)Man(a1-3)[Gal(a1-4)Gal(b1-3)GlcNAc(b1-2)Man(a1-6)]Man(b1-4)GlcNAc(b1-4)GlcNAc", "in_short": "as §1"}, "Gal(a1-4)Gal(b1-4)Glc": {"target": "Gal(a1-4)Gal(b1-4)Glc", "in_short": "as §1"}, "Gal(a1-4)Gal(b1-4)GlcNAc": {"target": "Gal(a1-4)Gal(b1-4)GlcNAc", "in_short": "as §1"}, "[26]": {"target": "Gal(a1-4)Gal(b1-4)GlcNAc(b1-2)Man(a1-3)[Gal(a1-4)Gal(b1-4)GlcNAc(b1-2)Man(a1-6)]Man(b1-4)GlcNAc(b1-4)GlcNAc", "in_short": "as §1"}, "[27]": {"target": "Gal(a1-4)Gal(b1-4)GlcNAc(b1-3)Gal(b1-4)Glc", "in_short": "as §1"}, "Gal(a1-4)GlcNAc": {"target": "Gal(a1-4)GlcNAc", "in_short": "as §1"}},
  "note": "Some of the results follow.",
  "data": [
    {"binder": "B1", "values": [
      {"measurement": "glycan array binding signal (z-score)", "setting": "[1]", "result": -0.24},
      {"measurement": "glycan array binding signal (z-score)", "setting": "[2]", "result": -0.032},
      {"measurement": "glycan array binding signal (z-score)", "setting": "[3]", "result": -0.271},
      {"measurement": "glycan array binding signal (z-score)", "setting": "[4]", "result": 0.135},
      {"measurement": "glycan array binding signal (z-score)", "setting": "[5]", "result": 0.221},
      {"measurement": "glycan array binding signal (z-score)", "setting": "[6]", "result": -0.151},
      {"measurement": "glycan array binding signal (z-score)", "setting": "[7]", "result": 0.045},
      {"measurement": "glycan array binding signal (z-score)", "setting": "[8]", "result": -0.048},
      {"measurement": "glycan array binding signal (z-score)", "setting": "[9]", "result": -0.151},
      {"measurement": "glycan array binding signal (z-score)", "setting": "[10]", "result": 0.406},
      {"measurement": "glycan array binding signal (z-score)", "setting": "[11]", "result": 0.843},
      {"measurement": "glycan array binding signal (z-score)", "setting": "[12]", "result": -0.067},
      {"measurement": "glycan array binding signal (z-score)", "setting": "Fuc(a1-4)GlcNAc", "result": -0.181},
      {"measurement": "glycan array binding signal (z-score)", "setting": "Fuc(b1-3)GlcNAc", "result": -0.16},
      {"measurement": "glycan array binding signal (z-score)", "setting": "Gal(a1-2)Gal", "result": -0.254},
      {"measurement": "glycan array binding signal (z-score)", "setting": "Gal(a1-3)Gal", "result": -0.059},
      {"measurement": "glycan array binding signal (z-score)", "setting": "Gal(a1-3)Gal(b1-3)GlcNAc", "result": -0.295},
      {"measurement": "glycan array binding signal (z-score)", "setting": "[13]", "result": 0.073},
      {"measurement": "glycan array binding signal (z-score)", "setting": "[14]", "result": 0.151},
      {"measurement": "glycan array binding signal (z-score)", "setting": "[15]", "result": 0.014},
      {"measurement": "glycan array binding signal (z-score)", "setting": "[16]", "result": -0.278},
      {"measurement": "glycan array binding signal (z-score)", "setting": "[17]", "result": -0.23},
      {"measurement": "glycan array binding signal (z-score)", "setting": "Gal(a1-3)Gal(b1-4)Glc", "result": -0.388},
      {"measurement": "glycan array binding signal (z-score)", "setting": "Gal(a1-3)Gal(b1-4)GlcNAc", "result": -0.277},
      {"measurement": "glycan array binding signal (z-score)", "setting": "[18]", "result": -0.215},
      {"measurement": "glycan array binding signal (z-score)", "setting": "[19]", "result": 0.16},
      {"measurement": "glycan array binding signal (z-score)", "setting": "[20]", "result": -0.261},
      {"measurement": "glycan array binding signal (z-score)", "setting": "[21]", "result": -0.218},
      {"measurement": "glycan array binding signal (z-score)", "setting": "[22]", "result": -0.161},
      {"measurement": "glycan array binding signal (z-score)", "setting": "[23]", "result": -0.1},
      {"measurement": "glycan array binding signal (z-score)", "setting": "Gal(a1-3)GalNAc", "result": -0.215},
      {"measurement": "glycan array binding signal (z-score)", "setting": "[24]", "result": 0.057},
      {"measurement": "glycan array binding signal (z-score)", "setting": "[25]", "result": 0.101},
      {"measurement": "glycan array binding signal (z-score)", "setting": "Gal(a1-4)Gal(b1-4)Glc", "result": -0.049},
      {"measurement": "glycan array binding signal (z-score)", "setting": "Gal(a1-4)Gal(b1-4)GlcNAc", "result": -0.044},
      {"measurement": "glycan array binding signal (z-score)", "setting": "[26]", "result": 0.284},
      {"measurement": "glycan array binding signal (z-score)", "setting": "[27]", "result": -0.137},
      {"measurement": "glycan array binding signal (z-score)", "setting": "Gal(a1-4)GlcNAc", "result": -0.083}
    ]}
  ]
}
